Data reported in PubChem BioAssay AID624418 (National Center for Advancing Translational Sciences (NCATS), 2012).
Values joined by “and” are separate entries in the source; they are usually repeats but may differ in a detail not shown here. Equal entries are not always repeated. Hit rate of the full screen: of about 410,000 compounds, about 530 (0.13%) were called active. The inconclusive results got no clear call from the source; some entries with a clear call stand among them for comparison. The call rests on the fitted dose curve; in most records, active means well fitted inhibition curve with a large enough effect; inconclusive means small, poorly fitted or top-dose-only effect, or another doubt; inactive means no such curve, though single readings can be large or run the other way. A potency beside an inconclusive call is a rough fit, not a confirmed value.

Experiment: qHTS of GLP-1 Receptor Inverse Agonists: Cytotox Screen
Settings: HEK293 cAMP-luciferase reporter cells, luminescence, 24 h; activity change, negative = inhibition: at 38.3 µM (top of the series) unless noted
Summary of the method: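 A 23 nL compound transfer followed 12 hours of cell culture at 37 deg C; exposure then lasted 24 hr. Luciferase assay detection reagent was dispensed and plates read for luminescence after a 12 min room-temperature wait.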
On the % scale 0 is the no-effect control and ±100 the full control effect; potency means the concentration at half of the fitted maximal effect.

SMILES | Potency | activity change, negative = inhibition
COc1ccccc1NC(=S)N=Nc1c(O)[nH]c2ccc(Br)cc12 | inconclusive: 4.47 µM [inhibitor, full curve] | 
COc1ccc2c3c(c(=O)oc2c1OCC(=O)O)CCCC3 |  | inactive: 3.75%
Cc1ccc(-c2cc(C(=O)N/N=C/c3c(C)nn(-c4ccccc4)c3C)n[nH]2)s1 | inconclusive: 1.78 µM [inhibitor, partial curve, poor fit] | 
Cc1nn(-c2ccccc2)c(C)c1C(=O)OCC(=O)Nc1cccc(S(N)(=O)=O)c1 |  | inactive: -9.02%
CC1=C(C(=O)Nc2ccc(C)cc2C)C(C(C)C)n2nc(SCc3ccccc3Cl)nc2N1 (configuration not stated) |  | inactive: 0.846%
CCN(CC)CCCNC(=O)CSc1c2c(nc3cc(Cl)ccc13)CCCC2 | inconclusive: 12.6 µM [inhibitor, single point] and inconclusive: 22.4 µM [inhibitor, partial curve, poor fit] | 
O=C(NCc1ccccn1)c1cccc(S(=O)(=O)Nc2ccccc2Cl)c1 |  | inactive: -0.817%
CCn1c(=S)[nH]c2cc(Cl)ccc21 |  | inactive: 9.08%
Cc1ccc(/C=N/n2c(-c3ccco3)n[nH]c2=S)cc1 | inconclusive: 28.2 µM [inhibitor, single point] | 
O=C(NC(=S)NC1CCN(Cc2ccccc2)CC1)c1ccc(F)cc1 | inconclusive: 28.2 µM [inhibitor, single point] | 
CCCCNC(=O)c1ccc2c(c1)NC(=O)C(CS(=O)(=O)Cc1cccc(C)c1)N2 (configuration not stated) |  | inactive: -3.39%
COc1ccccc1/C=C1\SC(=S)N(CCC(=O)NCCCN2CCOCC2)C1=O | inconclusive: 3.16 µM [inhibitor, full curve] | 
S=C(c1ccc(-c2ccc(Cl)cc2Cl)o1)N1CCCCC1 |  | inactive: -3.45%
COc1ccc(C(=O)CSc2nc(-c3ccccn3)nc(C)c2Cl)cc1 | active: 11.2 µM | 
CCOC(=O)N1CCN(C(=O)CSc2cc(C)nc3c(-c4ccccc4OC)c(C)nn23)CC1 | inconclusive: 10 µM [inhibitor, partial curve, poor fit] | 
COc1ccc(S(=O)(=O)NCC(=O)NC2CC2)cc1OC | inconclusive: 22.4 µM [inhibitor, single point] | 
COc1ccc(C(=O)Oc2c(CN3CCOCC3)cc(Cl)c3cccnc23)cc1 | inconclusive: 1.12 µM [inhibitor, full curve, poor fit] | 
Cn1c(CCCOc2ccc(Cl)cc2Cl)nnc1SCC(=O)Nc1ccc(F)c(Cl)c1 | inconclusive: 31.6 µM [inhibitor, single point] | 
N#C/C(C(=O)Nc1ccc(Cl)cc1)=C(/S)Nc1ccccc1 | inconclusive: 5.62 µM [inhibitor, partial curve, poor fit] | 
Cc1ccc(N2NC(C)(c3cccs3)NC2=S)cc1 (configuration not stated) | inconclusive: 3.98 µM [inhibitor, partial curve, poor fit] | 
C[C@H](CO)N1C[C@H](C)[C@@H](CN(C)Cc2ccc(C(=O)O)cc2)Oc2ncc(Br)cc2C1=O | inconclusive: 10 µM [inhibitor, partial curve, poor fit] | 
CN1/C(=C/C=C/c2n(C)c3cc([N+](=O)[O-])c([N+](=O)[O-])cc3[n+]2C)C(C)(C)c2ccccc21 | inconclusive: 7.08 µM [inhibitor, partial curve, poor fit] | 
O=C(C1CCCCC1)N1C[C@@H](n2cc(C3CC3)nn2)[C@H](O)C[C@@H]1c1ccc(Cl)cc1 |  | inactive: 0.565%

SMILES | Potency | activity change, negative = inhibition
Oc1[nH]c2ccccc2c1N=NC(=S)NCCc1ccccc1 | inconclusive: 11.2 µM [inhibitor, partial curve, poor fit] | 
Cc1ccc(-c2nc(N/N=C/c3ccncc3)c3ccccc3n2)cc1 | inconclusive: 28.2 µM [inhibitor, single point] | 
Cc1cc(=O)n2cccc(O)c2n1 | inconclusive: 11.2 µM [inhibitor, single point] | 
COc1ccc(C(=O)NC(=S)N2CCOCC2)cc1Br | inconclusive: 8.91 µM [inhibitor, partial curve, poor fit] | 
COC(=O)c1cc2c(ccn2-c2ccc(F)cc2)n1Cc1ccc(OC)cc1 |  | inactive: 3.99% [at 1.53 µM]
CNC(=O)/C(C#N)=C/c1cccc(Oc2ccccc2)c1 | inconclusive: 11.2 µM [inhibitor, single point] | 
COC(=O)c1ccc(C(=O)N2CCCC(Nc3ccc(C(C)C)cc3)C2)cc1 (configuration not stated) |  | inactive: -14.5%
S=C(c1nc2ccccc2[nH]1)N1CCOCC1 | inconclusive: 12.6 µM [inhibitor, single point] | 
CCCSc1ccc2nc(NC(=O)OC)[nH]c2c1 | inconclusive: 1.26 µM [inhibitor, full curve, poor fit] | 
CC(C)C[C@H]1CNC(=S)N1C[C@H]1CCCN1C[C@H](CC(C)C)N1C[C@H](Cc2ccc(O)cc2)N(CC2CCCCCC2)C1=S |  | inactive: -12.7%
CN(C)c1ccc(/C=C(/NC(=O)c2ccccc2)C(=O)N/N=C/c2ccc([N+](=O)[O-])c(O)c2)cc1 | inconclusive: 28.2 µM [inhibitor, single point] | 
C/C=C(\C)CN1CCN(c2ccccc2F)CC1 |  | inactive: 5.98%
CC(C)Oc1ccc(F)cc1-c1cc(C(=O)Nc2ccc(C(C)(C)C)cc2)[nH]n1 | inconclusive: 28.2 µM [inhibitor, single point] | 
CCOc1ccc(NCc2cccn2-c2nnc(N3CCC(C(=O)NCCCN4CCCCC4C)CC3)s2)cc1 (configuration not stated) | inconclusive: 28.2 µM [inhibitor, single point] | 
CCN1CCN(C(=S)Nc2sc(C)c(-c3ccccc3)c2C(=O)OC)CC1 | inconclusive: 28.2 µM [inhibitor, single point] | 
COc1cc(Nc2ncc3c(n2)CCN(C(=O)Nc2ccc(C(C)C)cc2)C3)cc(OC)c1OC | inconclusive: 5.62 µM [inhibitor, partial curve] | 
CSc1ncccc1C(=O)Nc1ccc2nc(C)sc2c1 | inconclusive: 0.501 µM [inhibitor, full curve, poor fit] | 
CC(=O)c1cccc(Nc2nc(-c3sc(C)nc3C)cs2)c1 | inconclusive: 8.91 µM [inhibitor, single point] | 
CN(C)CCCN(C(=O)c1ccc(Br)s1)c1nc2ccc(F)cc2s1 | inconclusive: 14.1 µM [inhibitor, single point] | 
CCn1c2ccccc2c2cc(NC(=O)N3CCOCC3)ccc21 |  | inactive: -7.78%
O=C1OCC2=C1C(c1ccc(Cl)cc1)c1cc3c(cc1O2)OCO3 (configuration not stated) | inconclusive: 2 µM [inhibitor, partial curve, poor fit] | 
CCN(CC(=O)NCCc1ccc(Cl)cc1)Cc1nc2ccccc2c(=O)[nH]1 | inconclusive: 28.2 µM [inhibitor, single point] | 
C#CC(=O)N(c1cccc(OC)c1)C(C(=O)NC1CCCC1)c1cccs1 (configuration not stated) | inconclusive: 10 µM [inhibitor, partial curve, poor fit] | 

SMILES | Potency | activity change, negative = inhibition
CCOC(=O)C1Nc2ccccc2C2c3ccccc3CC12 (configuration not stated) |  | inactive: 2.98%
Cc1ccccc1NC(=O)N1CCc2c(sc3c2CCCC3)C1c1ccccc1 (configuration not stated) |  | inactive: 12.5%
COc1cccc(NC(=O)Cn2nnc(-c3nc(-c4ccccc4)no3)c2N)c1 |  | inactive: 0.589%
CCOC(=O)c1sc(=S)n(-c2ccccc2)c1C |  | inactive: 1.19%
O=C(Nc1ccccc1Br)c1ccccc1-c1ccccc1 | inconclusive: 31.6 µM [inhibitor, single point] | 
COc1ccc(CCN(Cc2nc3ccccc3c(=O)[nH]2)C(=O)C2CC2)cc1 | inconclusive: 11.2 µM [inhibitor, partial curve, poor fit] | 
CN(CC(=O)N1CCc2ccccc21)S(=O)(=O)c1cccs1 |  | inactive: -15.5%
CC(NC(=O)c1ccccc1F)c1nnc(SCC(=O)N2CCN(c3ccccc3)CC2)n1C (configuration not stated) |  | inactive: -0.475%
CCn1cc(C(=O)O)c(=O)c2cnc(N3CCN(C(=S)NC(=O)c4ccc(Cl)cc4)CC3)nc21 |  | inactive: 2.03%
CC1CCCCC1NC(=O)CN1C(=O)NC(C)(c2ccc(OC(F)F)cc2)C1=O (configuration not stated) |  | inactive: 12.6%
O=C(CCCCn1c(=O)c2ccccc2n(Cc2ccc(F)cc2)c1=O)NCc1ccco1 | inconclusive: 11.2 µM [inhibitor, single point] | 
Cc1cc(C)nc(Sc2ncnc(N)c2[N+](=O)[O-])n1 | inconclusive: 28.2 µM [inhibitor, single point] | 
COc1cc(OC)c(C(=O)C=Cc2ccc(OC)c(OC)c2)c(OC)c1 | inconclusive: 11.2 µM [inhibitor, single point] | 
Cc1ccccc1C(=O)NC(=S)N(C)C1CCCCC1 | inconclusive: 11.2 µM [inhibitor, single point] | 
COC(=O)Nc1sc2nc(C)cc(C)c2c1-n1cccc1 | inconclusive: 10 µM [inhibitor, partial curve, poor fit] | 
O=C(Nc1ccc(F)cc1)c1ccccc1Oc1ccc(C(F)(F)F)cc1[N+](=O)[O-] | inconclusive: 14.1 µM [inhibitor, partial curve, poor fit] | 
COc1cc2nc(SCC(=O)Nc3c(C)cc(C)cc3C)n3nc(CCn4c(C)nc5ccccc54)nc3c2cc1OC |  | inactive: 10.5%
CCOc1cc(/C=N/Nc2cc(C)nc(-n3nc(C)cc3C)n2)ccc1O | inconclusive: 0.501 µM [inhibitor, full curve, poor fit] | 
O=C(NCc1cc(C(F)(F)F)cc(C(F)(F)F)c1)C1CC(c2ccccc2[N+](=O)[O-])=NO1 (configuration not stated) |  | inactive: 8.43%
Fc1ccc(C(NCCc2ccc(Cl)cc2)c2nnc(-c3ccccc3)o2)c(Cl)c1 (configuration not stated) |  | inactive: 1.12%
COc1ccccc1CNC(=O)CCn1c(=O)c2ccccc2n(CC(=O)Nc2ccc(C)cc2Cl)c1=O |  | inactive: 3.02%
